Reference: PubChem BioAssay AID504332 (National Center for Advancing Translational Sciences (NCATS), 2011)
Out of some 350,000 compounds screened, about 31,000 (8.9%) were called active. This list was built around the results that the source calls inconclusive (neither active nor inactive); the mix of calls is not that of the screen. Calls follow the shape of the dose curve; as a rule, active = well fitted inhibition curve with a large enough effect; inconclusive = small, poorly fitted or top-dose-only effect; inactive = no such curve, though single readings can be large or run the other way. Potencies beside an inconclusive call are fits to weak or partial responses and may not hold up.
% is scaled to controls: 0 for no effect and ±100 for the full control effect; potency is read from the fitted curve at half-maximal effect; tags tell the direction and shape of the fitted curve.
Also: nearly all actives have a fitted effect of over 75% in size.

What follows are molecules tested against Histone-lysine N-methyltransferase EHMT2 (Homo sapiens) (UniProt Q96KQ7) (assay: qHTS Assay for Inhibitors of Histone Lysine Methyltransferase G9a). Settings: G9a H3K9 monomethylation, AlphaScreen, 2 h; activity, negative = inhibition: at 59 µM (top of the series) unless noted.
Sequence of UniProt Q96KQ7 (Q96KQ7 whole entry, looked up): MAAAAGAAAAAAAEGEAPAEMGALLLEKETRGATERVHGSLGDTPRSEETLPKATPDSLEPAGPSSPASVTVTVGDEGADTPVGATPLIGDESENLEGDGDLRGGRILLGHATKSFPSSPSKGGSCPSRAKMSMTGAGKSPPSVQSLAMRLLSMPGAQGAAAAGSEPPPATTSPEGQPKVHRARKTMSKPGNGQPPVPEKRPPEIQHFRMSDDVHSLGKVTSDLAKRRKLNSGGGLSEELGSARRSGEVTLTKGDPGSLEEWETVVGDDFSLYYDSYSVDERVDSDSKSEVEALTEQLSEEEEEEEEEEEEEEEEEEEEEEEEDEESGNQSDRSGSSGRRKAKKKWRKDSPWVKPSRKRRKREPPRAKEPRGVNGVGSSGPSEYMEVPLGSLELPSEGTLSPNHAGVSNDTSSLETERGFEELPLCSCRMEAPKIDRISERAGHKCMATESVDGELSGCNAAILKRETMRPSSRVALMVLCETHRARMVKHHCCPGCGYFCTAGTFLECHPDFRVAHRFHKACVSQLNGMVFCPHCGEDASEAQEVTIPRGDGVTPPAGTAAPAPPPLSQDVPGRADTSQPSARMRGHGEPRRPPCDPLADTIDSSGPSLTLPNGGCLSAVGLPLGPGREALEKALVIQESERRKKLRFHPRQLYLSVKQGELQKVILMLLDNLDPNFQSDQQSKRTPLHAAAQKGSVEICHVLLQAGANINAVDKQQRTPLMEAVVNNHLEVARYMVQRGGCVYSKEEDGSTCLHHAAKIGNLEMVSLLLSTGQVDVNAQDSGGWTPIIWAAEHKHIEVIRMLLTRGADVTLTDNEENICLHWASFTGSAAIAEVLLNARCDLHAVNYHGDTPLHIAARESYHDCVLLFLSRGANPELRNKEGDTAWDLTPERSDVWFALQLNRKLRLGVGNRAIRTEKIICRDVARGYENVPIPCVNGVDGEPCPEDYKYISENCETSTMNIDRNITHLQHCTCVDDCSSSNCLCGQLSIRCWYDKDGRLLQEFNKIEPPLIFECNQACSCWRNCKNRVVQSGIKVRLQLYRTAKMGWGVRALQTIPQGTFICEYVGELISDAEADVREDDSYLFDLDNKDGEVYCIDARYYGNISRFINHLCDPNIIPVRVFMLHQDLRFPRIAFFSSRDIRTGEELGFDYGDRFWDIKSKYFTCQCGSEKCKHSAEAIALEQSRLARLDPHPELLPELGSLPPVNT
In short: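 Quantitative HTS format: methyltransferase activity on a biotin-tagged H3K9 peptide is measured by AlphaScreen, using a rabbit anti-monomethyl-H3K9 antibody with streptavidin donor and anti-IgG acceptor beads. Final levels are 20 nM enzyme, 500 nM peptide, 20 uM SAM; 2 h RT.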
In the case of `O=C(NCCCO)c1c(O)c2cccc3c2n(c1=O)CCC3`, the Potency is reported as inconclusive: 89.1 µM [inhibitor, single point]. For `COc1ccc(-c2nn(-c3ccccc3)cc2/C=N/Nc2ccc(S(N)(=O)=O)cc2[N+](=O)[O-])cc1OC`, the “activity, negative = inhibition” value was inactive: -5.49% [at 102 µM]. In the case of `COc1ccc(C(=O)Nc2cc(C)c(O)c(-c3nc4ccccc4s3)c2)cc1OC`, the “activity, negative = inhibition” value is reported as inactive: 1.06%. In the case of `Cc1ccc(C)c(NC(=O)Cn2c(=O)n(CC3CCCO3)c(=O)c3ccccc32)c1` (centres undefined), the “activity, negative = inhibition” value is reported as inactive: 24.9%. With `CCN1CCN(c2ncnc3c2cnn3-c2ccc(C)c(C)c2)CC1` the Potency was inconclusive: 0.631 µM [inhibitor, partial curve, poor fit]. In the case of `O=C(C[n+]1cc(-c2ccc(F)cc2)n2c1CCC2)Nc1nc(-c2ccccc2)cs1`, the “activity, negative = inhibition” value is reported as inactive: -10.8%. `O=C(CN1C(=O)COc2ccc(S(=O)(=O)NC3CCCC3)cc21)Nc1ccc(Cl)cc1` was tested, and the “activity, negative = inhibition” value was inactive: 1.22%. For `Cc1c(C(=O)N(C)C)sc2nc(-c3ccccn3)[nH]c(=O)c12`, the Potency was inconclusive: 89.1 µM [inhibitor, single point]. With `COC(=O)c1c(NC(=O)CSc2ncn[nH]2)sc(C)c1C` the Potency was active: 3.98 µM. For `COC(=O)c1ccccc1S(=O)(=O)N1CCC(C(=O)N(C)CCOc2ccccc2)CC1`, the Potency was inconclusive: 56.2 µM [inhibitor, partial curve, poor fit]. With `CCC1CCCCN1C(=O)C1CC(c2cc(Cl)c(OC)cc2OC)=NO1` (centres undefined) the activity, negative = inhibition was inconclusive: -56.4% [inhibitor]. In the case of `COc1cccc(CNC(=O)c2ccc3c(c2)nc2n3CCOC2)c1`, the “activity, negative = inhibition” value is reported as inactive: 14.6%. With `COC(=O)c1ccc2c(c1)NC(=O)C(N1CCCC1)S2` (centres undefined) the Potency was inconclusive: 89.1 µM [inhibitor, single point]. For `O=C(Cc1nc2ccccc2[nH]1)c1ccc([N+](=O)[O-])cc1`, the Potency was active: 44.7 µM. `CCc1nn(CC(=O)Nc2ccc(Br)c(C)c2)c(=N)s1` was tested, and the Potency was inconclusive: 50.1 µM [inhibitor, partial curve, poor fit]. In the case of `COc1cc(C(=O)Nn2c(CC(C)C)nc3ccccc3c2=O)cc(OC)c1OC`, the “activity, negative = inhibition” value is reported as inactive: -3.64% [at 102 µM]. In the case of `COC(=O)c1sc2ccccc2c1N`, the Potency is reported as inconclusive: 39.8 µM [inhibitor, single point]. In the case of `CN(Cc1ccccc1)C(=O)c1ncn(C)c1C(=O)N(C)Cc1ccccc1`, the activity, negative = inhibition is reported as inconclusive: -88.5% [inhibitor] [at 2.33 µM]. In the case of `CN1CCN(c2ccc(NC(=O)c3ccc(-c4cccc([N+](=O)[O-])c4)o3)cc2)CC1`, the Potency is reported as inconclusive: 39.8 µM [inhibitor, partial curve, poor fit]. In the case of `CCOc1cc(CN2CCC(n3nccc3NC(=O)C3CC3)CC2)ccc1O`, the Potency is reported as inconclusive: 50.1 µM [inhibitor, partial curve, poor fit]. `O=C(NCC1CCCO1)/C(=C\c1ccco1)NC(=O)c1ccccc1` (centres undefined) was tested, and the Potency was inconclusive: 28.2 µM [inhibitor, partial curve, poor fit]. With `COc1cccc(CNC(=O)N2CCN(c3ccccc3)CC2)c1` the “activity, negative = inhibition” value was inactive: 15.1% [at 102 µM]. For `CCOC(=O)N/N=C/c1cc(OC)c(O)c(OC)c1`, the Potency was inconclusive: 39.8 µM [inhibitor, single point]. `CCOc1ccc(CCNC(=O)COC(=O)c2ccc(S(=O)(=O)N3CCCC3)cc2)cc1OCC` was tested, and the Potency was inconclusive: 28.2 µM [inhibitor, partial curve, poor fit]. With `O=[N+]([O-])c1ccc(Cl)c(S(=O)(=O)/N=C(/c2ccccc2)N2CCOCC2)c1` the “activity, negative = inhibition” value was inactive: -49.4% [at 102 µM]. For `O=C(O)c1cccc(S(=O)(=O)Nc2ccc(O)cc2Sc2nc3ccccc3s2)c1`, the Potency was active: 7.94 µM. For `O=C(O)CSc1nccn1-c1cccc(Cl)c1`, the Potency was inconclusive: 89.1 µM [inhibitor, single point]. With `Cc1ccc(S(=O)(=O)C/N=C(/NC(=S)N(c2ccccc2)c2ccccc2)c2ccccc2)cc1` the Potency was active: 10 µM. In the case of `CN(C)S(=O)(=O)c1cccc(NC(=O)COC(=O)/C=C/c2ccc(Br)o2)c1`, the Potency is reported as active: 44.7 µM. For `Cc1ccccc1OC(=O)CSc1nnc(-c2cccs2)o1`, the Potency was inconclusive: 39.8 µM [inhibitor, partial curve, poor fit]. `O=Cc1c(NCc2ccc(Cl)cc2)c2ccccc2[nH]c1=O` was tested, and the “activity, negative = inhibition” value was inactive: 15.9% [at 102 µM]. For `COc1ccc(C2CC(c3ccc4ccccc4c3)=NN2C(=O)CN2CCC(C(N)=O)CC2)cc1` (centres undefined), the Potency was inconclusive: 44.7 µM [inhibitor, partial curve]. With `COc1ccc(CCNc2ccncn2)cc1` the Potency was inconclusive: 89.1 µM [inhibitor, single point]. For `Cc1ccc(CNC(=O)CSc2nnc3c(n2)[nH]c2ccc(F)cc23)cc1`, the Potency was inconclusive: 79.4 µM [inhibitor, single point]. In the case of `COc1cccc(C(=O)N/N=C/C(Br)=C/c2ccccc2)c1`, the Potency is reported as inconclusive: 7.94 µM [inhibitor, full curve, poor fit]. For `CSc1ccccc1NC(=O)c1cnc2n(c1=O)CCS2`, the Potency was inconclusive: 79.4 µM [inhibitor, single point]. `COc1ccc(-c2cc(C(=O)N3CCN(c4ccccc4OC)CC3)no2)cc1OC` was tested, and the “activity, negative = inhibition” value was inactive: 6.29%. For `COc1ccc(C(=O)NC(=S)Nc2cccnc2)cc1OC`, the Potency was active: 50.1 µM. With `O=c1c(Cl)c(Cl)cnn1Cc1nnc(-c2ccc(Cl)cc2)o1` the Potency was inconclusive: 79.4 µM [inhibitor, single point]. In the case of `Cc1ccc(S(=O)(=O)C2(C(=O)NC3CCCC3)CC2)cc1`, the Potency is reported as inconclusive: 1 µM [inhibitor, full curve, poor fit]. In the case of `COc1ccccc1NC(=O)CSc1oc(-c2cccs2)nc1S(=O)(=O)c1ccccc1`, the Potency is reported as inconclusive: 17.8 µM [inhibitor, partial curve, poor fit]. `COc1ccc(NS(=O)(=O)c2ccc(NC(=S)NC(=O)c3cccnc3)cc2)nn1` was tested, and the Potency was active: 28.2 µM. `Cc1ccc(S(=O)(=O)N2CCCOC2CNC(=O)C(=O)NCc2cccnc2)cc1` (centres undefined) was tested, and the “activity, negative = inhibition” value was inactive: 27.1%. For `Cc1ccc(CN2C(=O)C3(c4ccccc42)N(c2cccc(C(F)(F)F)c2)C(=O)CS3(=O)=O)cc1` (centres undefined), the Potency was inconclusive: 12.6 µM [inhibitor, partial curve]. With `O=C(CN1C(=O)S/C(=C/c2cccs2)C1=O)N1CCOCC1` the Potency was inconclusive: 39.8 µM [inhibitor, single point]. `CCc1cccc(NC(=O)Cn2nc(-c3cc(C)ccc3C)ccc2=O)c1` was tested, and the “activity, negative = inhibition” value was inactive: -6.22%. `COc1cc(OC)c(OC)cc1/C=N/N(C)c1ccccc1` was tested, and the Potency was active: 8.91 µM. `COc1ccc(OC)c(NC(=O)CN2C(=O)CCc3cc(S(=O)(=O)N4CCCCC4)ccc32)c1` was tested, and the activity, negative = inhibition was inactive: 4.41% [at 12.7 µM]. `COc1ccc(C(=O)Nc2ccc(C3(C#N)CCCC3)cc2)cc1OC` was tested, and the activity, negative = inhibition was inactive: 5.57% [at 0.501 µM]. In the case of `NC(=O)CC[C@H](NC(=O)c1ccc(F)cc1)C(=O)OCC(=O)Nc1ccc(N2CCOCC2)cc1`, the Potency is reported as inconclusive: 0.251 µM [inhibitor, full curve, poor fit]. For `S=C(NCc1ccc(Cl)cc1)NC1CCCCC1`, the “activity, negative = inhibition” value was inactive: 8.97%. For `CCN(CC)Cc1c(O)ccc2c([N+](=O)[O-])c(C)n(-c3ccc(OC)cc3)c12`, the Potency was inconclusive: 35.5 µM [inhibitor, single point]. For `CCSC1(SCC)N=C(N)C2(C#N)C(c3ccc(OC)c(OC)c3OC)C12C#N` (centres undefined), the activity, negative = inhibition was inconclusive: -80.2% [inhibitor]. For `CCCCc1c(O)nc(SCC(=O)N2CCOCC2)[nH]c1=O`, the Potency was inconclusive: 56.2 µM [inhibitor, partial curve, poor fit]. With `CCSc1nnc(SCC(=O)N2CCN(C(=O)c3ccco3)CC2)s1` the “activity, negative = inhibition” value was inactive: -18.4% [at 102 µM]. In the case of `O=C1/C(=N\S(=O)(=O)c2cccs2)C([n+]2cccc(Cc3ccccc3)c2)=C([O-])c2ccccc21`, the Potency is reported as inconclusive: 50.1 µM [inhibitor, partial curve]. With `NC(=O)[C@@H]1CCCN1Cc1nc(Cc2ccccc2Cl)no1` the “activity, negative = inhibition” value was inactive: 0.821% [at 102 µM]. In the case of `O=C(COc1ccc([N+](=O)[O-])cc1)N(C1CCCCC1)C1CCS(=O)(=O)C1` (centres undefined), the Potency is reported as inconclusive: 89.1 µM [inhibitor, single point]. With `CCC(=O)Nc1cc(C(=O)NCC2CCCN2CC)c(OC)cc1N(C)C` (centres undefined) the Potency was inconclusive: 31.6 µM [inhibitor, partial curve, poor fit]. With `Cc1ccc(C)c(N2CCN(C3=C(c4ccccc4)C(=O)c4ccccc43)CC2)c1` the Potency was active: 3.16 µM. In the case of `COc1cccc(N2CCN(C(=O)c3cnn(-c4ccc(C)cc4C)c3C3CCN(C(=O)OC(C)(C)C)CC3)CC2)c1`, the Potency is reported as inconclusive: 3.55 µM [inhibitor, partial curve, poor fit]. For `CC(C)(C)S(=O)(=O)c1cnc2c(S(=O)(=O)c3ccccc3)cnn2c1N`, the Potency was inconclusive: 35.5 µM [inhibitor, partial curve]. `CN(C)/C=C/C(=O)c1ncc(C(F)(F)F)cc1Cl` was tested, and the Potency was inconclusive: 89.1 µM [inhibitor, partial curve, poor fit]. With `O=C(CCCN1C(=O)/C(=C/c2ccccc2)SC1=S)NCCCn1ccnc1` the “activity, negative = inhibition” value was inactive: -22.8% [at 102 µM]. For `CC(=O)N1c2c(cc(Br)cc2S(=O)(=O)N2CCN(c3cccc(Cl)c3)CC2)CC1C` (centres undefined), the “activity, negative = inhibition” value was inactive: -28.8%. `COc1cccc(-c2nc(-c3ccc4c(c3)NC(=O)CO4)cs2)c1` was tested, and the “activity, negative = inhibition” value was inactive: -4.03%. In the case of `CCN(CC)c1ccc(/C=N/NC(=O)Cc2nnc(NC(=O)Nc3ccccc3)s2)cc1`, the Potency is reported as inconclusive: 89.1 µM [inhibitor, single point]. With `COc1ccc(S(=O)(=O)Nc2cc(C)nn2-c2ccccc2)cc1` the Potency was inconclusive: 0.794 µM [inhibitor, partial curve, poor fit]. With `COc1ccc(Br)cc1CNc1ccc(O)cc1` the Potency was inconclusive: 1.78 µM [inhibitor, partial curve, poor fit].
